# Measured values reported in patent publication US20250223331A1, “GLP-1/GIP DUAL-TARGETED POLYPEPTIDE AND FUSION PROTEIN AND APPLICATIONS THEREOF” (SUNSHINE LAKE PHARMA CO., LTD., priority 2021, published 2025).
# Numbering of substitutions follows the chain as printed.
# B1: HEC-G33 (Fc fusion)
# chain: YAEGTFTSDYSKLLEEEAVRLFIEWLLAGGGGGSGGGGSGGGGSA[here human IgG4 Fc with S228P F234A L235A (EU numbers) without letters]
# B2: HEC-G80 (Fc fusion)
# chain: B1 chain with A2G, K12I, L13Y, E15D, E16K, E17K, V19Q, L21D, W25Y
# B3: HEC-G79 (Fc fusion)
# chain: B1 chain with A2G, K12I, L13Y, E15D, E16K, E17K, V19Q, L21D
# B4: HEC-G45 (Fc fusion)
# chain: B1 chain with A2G, K12I, L13Y, E15D, E16K, E17K, V19Q, L21D, I23V, L27I
# B5: HEC-G43 (Fc fusion)
# chain: B1 chain with A2G, K12I, L13Y, E15D, E16K, E17K, V19Q, L21D, I23V
# B6: HEC-G52 (Fc fusion)
# chain: B1 chain with A2G, K12I, L13Y, E15D, E16K, E17Q, V19Q, L21D, I23V
# B7: HEC-G14 (Fc fusion)
# chain: B1 chain with A2S, L27V, A28K
# B8: HEC-G13 (Fc fusion)
# chain: B1 chain with A2S
# Experiments:
# GIPR = target: T1, GIPR (UniProt P48546 22-466, limits assumed); assay: cell-based or functional assay
# T1 sequence (looked up): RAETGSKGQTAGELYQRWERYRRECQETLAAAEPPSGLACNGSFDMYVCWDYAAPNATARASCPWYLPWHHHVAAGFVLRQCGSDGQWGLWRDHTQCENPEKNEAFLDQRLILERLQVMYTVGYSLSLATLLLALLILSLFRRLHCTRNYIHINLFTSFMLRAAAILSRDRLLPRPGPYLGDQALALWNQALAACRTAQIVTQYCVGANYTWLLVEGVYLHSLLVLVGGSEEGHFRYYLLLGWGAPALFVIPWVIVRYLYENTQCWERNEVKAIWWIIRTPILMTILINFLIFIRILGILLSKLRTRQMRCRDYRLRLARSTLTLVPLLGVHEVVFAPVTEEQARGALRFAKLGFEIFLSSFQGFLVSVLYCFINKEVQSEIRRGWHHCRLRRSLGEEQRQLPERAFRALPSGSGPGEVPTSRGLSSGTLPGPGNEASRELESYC
# GLP-1R = GLP-1R (UniProt P43220 24-463, limits assumed); assay: cell-based or functional assay
Binder,"EC50, cAMP (GIPR)","EC50, cAMP (GLP-1R)"
B1,2.23 nM,0.391 nM
B2,3.18 nM,1.25 nM
B3,0.779 nM,3.25 nM
B4,2.42 nM,0.14 nM
B5,4.99 nM,0.961 nM
B6,1.21 nM,2.72 nM
B7,10.1 nM,0.114 nM
B8,1.73 nM,0.685 nM
